This note sets out measurements from paper PMC4333420, “REV7 is essential for DNA damage tolerance via two REV3L binding sites in mammalian DNA polymerase ζ” (Nucleic Acids Research, 2015).

Sequences of proteins named here, by UniProt entry; tags and fusion partners are left off.
UniProt Q9UI95: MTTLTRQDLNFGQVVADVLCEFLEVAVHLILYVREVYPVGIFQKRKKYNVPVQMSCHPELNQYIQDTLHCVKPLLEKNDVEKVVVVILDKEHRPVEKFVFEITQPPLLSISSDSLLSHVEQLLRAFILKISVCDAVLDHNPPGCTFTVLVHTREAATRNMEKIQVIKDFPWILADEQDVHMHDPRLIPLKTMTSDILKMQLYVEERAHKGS

Numbering of substitutions follows the chain as printed. No constants are given. Whether binding was seen depends on the method and setting. For part of these data: Binding seen in cells or lysates may run through a third protein. Some entries that bind do so weakly or less than the wild type. For part of these data: Where a sequence is shown, tags or fusion partners need not be part of it.

The target in test [1] is T1, GST-REV3L 1974–2025 (P1996A, P2001A) (human) (UniProt O60673).
T1 sequence: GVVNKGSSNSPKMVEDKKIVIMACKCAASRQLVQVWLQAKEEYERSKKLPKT
The experiment in a line: pull-down; GST-fusion REV3L fragment, His-REV7 and Glutathione-Sepharose 4B beads, 4°C for 4 h in 500 μl of 0.1B; blot with anti-His and anti-GST; both purified.

In test [2] the target is T2, GST-REV3L 1974–1999 (human) (UniProt O60673).
T2 sequence: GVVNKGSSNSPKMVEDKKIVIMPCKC
The test is described as above.

Test [3] addresses T3, GFP-REV3L 1974–1999 (human) (UniProt O60673).
T3 sequence: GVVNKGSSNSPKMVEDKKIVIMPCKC
The experiment in a line: co-IP; anti-GFP agarose on lysates of 293T cells transfected with GFP-REV3L fragments; 4 h at 4°C; washed with 0.1B; blot for endogenous REV7.

For test [4], the target named is T4, GFP-REV3L 1974–2025 (P1996A, P2001A) (human) (UniProt O60673).
T4 sequence: T1 sequence
The description is as above.

The target in test [5] is T5, GFP-REV3L 1974–2025 (human) (UniProt O60673).
T5 sequence: T1 sequence with A23P, A28P
Described as above.

Test [6] has as its target T6, GFP-REV3L 1974–2075 (human) (UniProt O60673).
T6 sequence: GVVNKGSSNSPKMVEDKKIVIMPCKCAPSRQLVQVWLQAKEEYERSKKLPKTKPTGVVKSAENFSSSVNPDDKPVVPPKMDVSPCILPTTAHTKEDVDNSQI
Described as above.

For test [7], the target named is FH-REV3L (P1880A, P1885A, P1996A, P2001A) (human) (UniProt O60673). Kind of test: co-IP; FLAG antibody beads on lysates of 293T cells transfected with FH-REV3L constructs (48 h); 4 h at 4°C; washed with 0.1B; blot for endogenous REV7.
For test [8], the target named is T7, FH-REV3L 1974–3130 (human) (UniProt O60673).
T7 sequence: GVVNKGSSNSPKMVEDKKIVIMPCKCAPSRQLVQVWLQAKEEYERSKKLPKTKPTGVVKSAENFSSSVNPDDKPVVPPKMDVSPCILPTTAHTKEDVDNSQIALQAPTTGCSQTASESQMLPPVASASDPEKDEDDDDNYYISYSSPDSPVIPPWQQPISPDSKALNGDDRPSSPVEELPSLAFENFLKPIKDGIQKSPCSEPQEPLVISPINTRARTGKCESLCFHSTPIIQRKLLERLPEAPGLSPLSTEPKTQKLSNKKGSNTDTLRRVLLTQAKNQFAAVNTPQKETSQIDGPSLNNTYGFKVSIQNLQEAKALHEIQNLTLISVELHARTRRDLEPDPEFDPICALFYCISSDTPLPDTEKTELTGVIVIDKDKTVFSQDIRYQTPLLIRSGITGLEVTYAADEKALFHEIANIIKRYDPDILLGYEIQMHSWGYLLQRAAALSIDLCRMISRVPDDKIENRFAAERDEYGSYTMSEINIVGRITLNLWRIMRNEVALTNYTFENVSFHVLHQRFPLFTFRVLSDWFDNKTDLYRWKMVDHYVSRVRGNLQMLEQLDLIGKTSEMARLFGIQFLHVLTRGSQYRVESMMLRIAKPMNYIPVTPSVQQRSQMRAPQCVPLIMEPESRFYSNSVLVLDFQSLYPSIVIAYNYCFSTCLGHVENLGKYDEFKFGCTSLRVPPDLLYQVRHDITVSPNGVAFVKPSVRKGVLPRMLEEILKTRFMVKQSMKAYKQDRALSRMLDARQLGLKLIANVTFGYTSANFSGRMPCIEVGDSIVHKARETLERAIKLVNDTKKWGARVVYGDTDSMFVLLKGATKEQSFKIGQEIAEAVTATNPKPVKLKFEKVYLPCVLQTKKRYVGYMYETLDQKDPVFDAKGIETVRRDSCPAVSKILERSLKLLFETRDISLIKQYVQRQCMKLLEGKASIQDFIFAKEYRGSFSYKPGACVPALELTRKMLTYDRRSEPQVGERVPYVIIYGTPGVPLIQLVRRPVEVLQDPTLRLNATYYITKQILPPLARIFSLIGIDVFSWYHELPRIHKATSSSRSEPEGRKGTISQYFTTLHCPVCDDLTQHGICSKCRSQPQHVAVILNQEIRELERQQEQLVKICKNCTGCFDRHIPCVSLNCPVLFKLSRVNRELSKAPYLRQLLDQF
The description is as above.

The target in test [9] is FH-REV3L (P1880A, P1885A) (human) (UniProt O60673). The description is as above.
For test [10], the target named is FH-REV3L (N-terminal FLAG-HA tagged full-length human REV3L) (human) (UniProt O60673). Described as above.
Test [11] concerns the target FH-REV3L (P1996A, P2001A) (human) (UniProt O60673). The test is described as above.
Test [12] addresses T8, FH-REV3L 2000–3130 (human) (UniProt O60673).
T8 sequence: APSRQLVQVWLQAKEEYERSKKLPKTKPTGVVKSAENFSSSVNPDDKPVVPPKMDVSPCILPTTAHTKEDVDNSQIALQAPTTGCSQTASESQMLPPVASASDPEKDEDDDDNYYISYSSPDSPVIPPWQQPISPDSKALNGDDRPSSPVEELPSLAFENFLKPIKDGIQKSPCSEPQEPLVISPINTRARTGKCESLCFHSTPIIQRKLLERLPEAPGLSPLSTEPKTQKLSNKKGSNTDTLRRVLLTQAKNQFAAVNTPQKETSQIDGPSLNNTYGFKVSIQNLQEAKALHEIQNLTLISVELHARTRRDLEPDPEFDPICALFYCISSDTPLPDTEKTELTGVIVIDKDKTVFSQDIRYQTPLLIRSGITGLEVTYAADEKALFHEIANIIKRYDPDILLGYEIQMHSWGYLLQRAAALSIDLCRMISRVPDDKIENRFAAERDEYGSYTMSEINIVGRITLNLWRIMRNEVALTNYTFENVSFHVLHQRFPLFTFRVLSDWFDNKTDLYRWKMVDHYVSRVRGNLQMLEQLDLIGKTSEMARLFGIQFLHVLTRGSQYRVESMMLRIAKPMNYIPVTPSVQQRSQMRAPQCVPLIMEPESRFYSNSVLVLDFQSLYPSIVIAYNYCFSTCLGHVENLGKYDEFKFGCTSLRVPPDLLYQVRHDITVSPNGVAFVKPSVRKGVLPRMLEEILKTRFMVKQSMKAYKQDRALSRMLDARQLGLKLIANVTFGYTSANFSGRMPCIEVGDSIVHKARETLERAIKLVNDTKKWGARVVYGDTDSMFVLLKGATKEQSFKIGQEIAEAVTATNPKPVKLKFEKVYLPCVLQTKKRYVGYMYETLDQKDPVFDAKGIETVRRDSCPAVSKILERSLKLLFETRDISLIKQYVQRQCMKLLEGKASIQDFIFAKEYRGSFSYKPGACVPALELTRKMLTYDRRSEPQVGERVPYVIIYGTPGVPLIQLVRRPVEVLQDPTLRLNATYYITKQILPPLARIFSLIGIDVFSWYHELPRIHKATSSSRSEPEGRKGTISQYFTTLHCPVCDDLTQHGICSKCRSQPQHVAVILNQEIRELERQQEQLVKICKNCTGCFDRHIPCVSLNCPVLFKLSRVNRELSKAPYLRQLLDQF
Described as above.

Turning to His-REV7 (from UniProt Q9UI95 1-211), the binding result in [1] and in test [2] was “no binding” in each case.

For the substance “REV7 (MAD2L2), endogenous in human 293T cells (from UniProt Q9UI95 1-211)”, the binding entry is “no binding” in test [3]; “no binding” in test [4]; “binds” in test [5]; “binds” in [6]; “no binding” in test [7]; “binds” in [8]. Moreover, the binding result in test [9] was “binds”; in test [10] it was “binds”; in test [11] it was “binds”; in [12], “no binding”.
